# Source: the supplement of paper PMC8728848
# The list shows a part of the results.
# Legend:
# Assay in all cases: glycan array binding signal (z-score within array); higher = stronger binding
# Details in all cases: glycan notation: IUPAC condensed, linker removed
# [1] = target: Fuc(a1-2)Gal6S(b1-3)GlcNAc6S
# Outline: (§1)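 The binding signal is a Z-score computed within each array. Data were drawn from 3228 arrays in the Consortium for Functional Glycomics database, restricted to those with a known protein sequence. Scores were averaged over arrays of the same protein sequence at different concentrations or buffers, and over linkers, and negative values can be taken as non-binding.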
# [2] = target: Fuc(a1-2)Gal6S(b1-4)Glc
# Outline: as §1
# [3] = target: Fuc(a1-2)Gal6S(b1-4)Glc6S
# Outline: as §1
# [4] = target: Fuc(a1-2)[Gal(a1-3)]Gal
# Outline: as §1
# [5] = target: Fuc(a1-2)[Gal(a1-3)]Gal(b1-3)GalNAc
# Outline: as §1
# [6] = target: Fuc(a1-2)[Gal(a1-3)]Gal(b1-3)GalNAc(b1-3)Gal(a1-4)Gal(b1-4)Glc
# Outline: as §1
# [7] = target: Fuc(a1-2)[Gal(a1-3)]Gal(b1-3)GlcNAc
# Outline: as §1
# [8] = target: Fuc(a1-2)[Gal(a1-3)]Gal(b1-3)GlcNAc(b1-2)Man(a1-3)[Fuc(a1-2)[Gal(a1-3)]Gal(b1-3)GlcNAc(b1-2)Man(a1-6)]Man(b1-4)GlcNAc(b1-4)GlcNAc
# Outline: as §1
# [9] = target: Fuc(a1-2)[Gal(a1-3)]Gal(b1-3)GlcNAc(b1-2)Man(a1-3)[Fuc(a1-2)[Gal(a1-3)]Gal(b1-3)GlcNAc(b1-2)Man(a1-6)]Man(b1-4)GlcNAc(b1-4)[Fuc(a1-6)]GlcNAc
# Outline: as §1
# [10] = target: Fuc(a1-2)[Gal(a1-3)]Gal(b1-3)GlcNAc(b1-3)GalNAc
# Outline: as §1
# [11] = target: Fuc(a1-2)[Gal(a1-3)]Gal(b1-3)GlcNAc(b1-6)GalNAc
# Outline: as §1
# [12] = target: Fuc(a1-2)[Gal(a1-3)]Gal(b1-4)Glc
# Outline: as §1
# [13] = target: Fuc(a1-2)[Gal(a1-3)]Gal(b1-4)GlcNAc
# Outline: as §1
# [14] = target: Fuc(a1-2)[Gal(a1-3)]Gal(b1-4)GlcNAc(b1-2)Man
# Outline: as §1
# [15] = target: Fuc(a1-2)[Gal(a1-3)]Gal(b1-4)GlcNAc(b1-2)Man(a1-3)[Fuc(a1-2)[Gal(a1-3)]Gal(b1-4)GlcNAc(b1-2)Man(a1-6)]Man(b1-4)GlcNAc(b1-4)GlcNAc
# Outline: as §1
# [16] = target: Fuc(a1-2)[Gal(a1-3)]Gal(b1-4)GlcNAc(b1-2)Man(a1-3)[Fuc(a1-2)[Gal(a1-3)]Gal(b1-4)GlcNAc(b1-2)Man(a1-6)]Man(b1-4)GlcNAc(b1-4)[Fuc(a1-6)]GlcNAc
# Outline: as §1
# [17] = target: Fuc(a1-2)[Gal(a1-3)]Gal(b1-4)GlcNAc(b1-3)GalNAc
# Outline: as §1
# [18] = target: Fuc(a1-2)[Gal(a1-3)]Gal(b1-4)GlcNAc(b1-3)[Fuc(a1-2)[Gal(a1-3)]Gal(b1-4)GlcNAc(b1-6)]GalNAc
# Outline: as §1
# [19] = target: Fuc(a1-2)[Gal(a1-3)]Gal(b1-4)GlcNAc(b1-6)GalNAc
# Outline: as §1
# [20] = target: Fuc(a1-2)[Gal(a1-3)]Gal(b1-4)[Fuc(a1-3)]Glc
# Outline: as §1
# [21] = target: Fuc(a1-2)[Gal(a1-3)]Gal(b1-4)[Fuc(a1-3)]GlcNAc
# Outline: as §1
# [22] = target: Fuc(a1-2)[Gal(a1-3)]Gal(b1-4)[Fuc(a1-3)]GlcNAc(b1-3)GalNAc
# Outline: as §1
# [23] = target: Fuc(a1-2)[Gal(a1-4)]Gal(b1-4)GlcNAc
# Outline: as §1
# [24] = target: Fuc(a1-2)[GalNAc(a1-3)]Gal
# Outline: as §1
# [25] = target: Fuc(a1-2)[GalNAc(a1-3)]Gal(b1-3)GalNAc(a1-3)[Fuc(a1-2)]Gal(b1-4)GlcNAc
# Outline: as §1
# [26] = target: Fuc(a1-2)[GalNAc(a1-3)]Gal(b1-3)GalNAc(b1-3)Gal(a1-4)Gal(b1-4)Glc
# Outline: as §1
# [27] = target: Fuc(a1-2)[GalNAc(a1-3)]Gal(b1-3)GlcNAc
# Outline: as §1
# [28] = target: Fuc(a1-2)[GalNAc(a1-3)]Gal(b1-3)GlcNAc(b1-2)Man(a1-3)[Fuc(a1-2)[GalNAc(a1-3)]Gal(b1-3)GlcNAc(b1-2)Man(a1-6)]Man(b1-4)GlcNAc(b1-4)GlcNAc
# Outline: as §1
# [29] = target: Fuc(a1-2)[GalNAc(a1-3)]Gal(b1-3)GlcNAc(b1-2)Man(a1-3)[Fuc(a1-2)[GalNAc(a1-3)]Gal(b1-3)GlcNAc(b1-2)Man(a1-6)]Man(b1-4)GlcNAc(b1-4)[Fuc(a1-6)]GlcNAc
# Outline: as §1
# [30] = target: Fuc(a1-2)[GalNAc(a1-3)]Gal(b1-3)GlcNAc(b1-3)GalNAc
# Outline: as §1
# [31] = target: Fuc(a1-2)[GalNAc(a1-3)]Gal(b1-3)GlcNAc(b1-6)GalNAc
# Outline: as §1
# [32] = target: Fuc(a1-2)[GalNAc(a1-3)]Gal(b1-4)Glc
# Outline: as §1
# [33] = target: Fuc(a1-2)[GalNAc(a1-3)]Gal(b1-4)GlcNAc
# Outline: as §1
# [34] = target: Fuc(a1-2)[GalNAc(a1-3)]Gal(b1-4)GlcNAc(b1-2)Man
# Outline: as §1
# [35] = target: Fuc(a1-2)[GalNAc(a1-3)]Gal(b1-4)GlcNAc(b1-2)Man(a1-3)[Fuc(a1-2)[GalNAc(a1-3)]Gal(b1-4)GlcNAc(b1-2)Man(a1-6)]Man(b1-4)GlcNAc(b1-4)GlcNAc
# Outline: as §1
# [36] = target: Fuc(a1-2)[GalNAc(a1-3)]Gal(b1-4)GlcNAc(b1-2)Man(a1-3)[Fuc(a1-2)[GalNAc(a1-3)]Gal(b1-4)GlcNAc(b1-2)Man(a1-6)]Man(b1-4)GlcNAc(b1-4)[Fuc(a1-6)]GlcNAc
# Outline: as §1
# [37] = target: Fuc(a1-2)[GalNAc(a1-3)]Gal(b1-4)GlcNAc(b1-3)Gal(b1-4)GlcNAc
# Outline: as §1
# [38] = target: Fuc(a1-2)[GalNAc(a1-3)]Gal(b1-4)GlcNAc(b1-3)Gal(b1-4)GlcNAc(b1-3)Gal(b1-4)GlcNAc
# Outline: as §1
# [39] = target: Fuc(a1-2)[GalNAc(a1-3)]Gal(b1-4)GlcNAc(b1-3)GalNAc
# Outline: as §1
# [40] = target: Fuc(a1-2)[GalNAc(a1-3)]Gal(b1-4)GlcNAc(b1-3)[Fuc(a1-2)[GalNAc(a1-3)]Gal(b1-4)GlcNAc(b1-6)]GalNAc
# Outline: as §1
# [41] = target: Fuc(a1-2)[GalNAc(a1-3)]Gal(b1-4)GlcNAc(b1-6)GalNAc
# Outline: as §1
# [42] = target: Fuc(a1-2)[GalNAc(a1-3)]Gal(b1-4)[Fuc(a1-3)]GlcNAc
# Outline: as §1
# [43] = target: Fuc(a1-2)[GalNAc(a1-3)]Gal(b1-4)[Fuc(a1-3)]GlcNAc(b1-3)GalNAc
# Outline: as §1
# [44] = target: Fuc(a1-2)[GalNAc(a1-4)]Gal(b1-4)GlcNAc
# Outline: as §1
# [45] = target: Fuc(a1-2)[GalNAc(b1-3)]Gal
# Outline: as §1
binder,measurement,setting,value
PfulAvr4 2 (Pseudocercospora fuligena) (protein) HHHHHHDYKDDDDKAKPIKPFACPPKDFTTTKCQGPVDCLYANPLSCLGYIQCVCDDDACSTATPYAKSCPTGLAWVEKLKRCDGIKKSACPKKMYEGS,glycan array binding signal (z-score),[1],0.908
same,glycan array binding signal (z-score),[2],-0.291
same,glycan array binding signal (z-score),[3],-0.237
same,glycan array binding signal (z-score),[4],-0.18
same,glycan array binding signal (z-score),[5],-0.302
same,glycan array binding signal (z-score),[6],-0.378
same,glycan array binding signal (z-score),[7],-0.268
same,glycan array binding signal (z-score),[8],-0.082
same,glycan array binding signal (z-score),[9],1.76
same,glycan array binding signal (z-score),[10],-0.156
same,glycan array binding signal (z-score),[11],-0.076
same,glycan array binding signal (z-score),[12],-0.269
same,glycan array binding signal (z-score),[13],-0.336
same,glycan array binding signal (z-score),[14],-0.046
same,glycan array binding signal (z-score),[15],-0.273
same,glycan array binding signal (z-score),[16],0.493
same,glycan array binding signal (z-score),[17],-0.381
same,glycan array binding signal (z-score),[18],0.503
same,glycan array binding signal (z-score),[19],-0.178
same,glycan array binding signal (z-score),[20],-0.275
same,glycan array binding signal (z-score),[21],-0.192
same,glycan array binding signal (z-score),[22],-0.19
same,glycan array binding signal (z-score),[23],-0.039
same,glycan array binding signal (z-score),[24],-0.343
same,glycan array binding signal (z-score),[25],3.28
same,glycan array binding signal (z-score),[26],0.318
same,glycan array binding signal (z-score),[27],0.123
same,glycan array binding signal (z-score),[28],0.356
same,glycan array binding signal (z-score),[29],-0.42
same,glycan array binding signal (z-score),[30],0.502
same,glycan array binding signal (z-score),[31],-0.429
same,glycan array binding signal (z-score),[32],-0.327
same,glycan array binding signal (z-score),[33],-0.313
same,glycan array binding signal (z-score),[34],-0.308
same,glycan array binding signal (z-score),[35],-0.305
same,glycan array binding signal (z-score),[36],0.829
same,glycan array binding signal (z-score),[37],-0.368
same,glycan array binding signal (z-score),[38],-0.243
same,glycan array binding signal (z-score),[39],-0.273
same,glycan array binding signal (z-score),[40],-0.307
same,glycan array binding signal (z-score),[41],-0.376
same,glycan array binding signal (z-score),[42],-0.088
same,glycan array binding signal (z-score),[43],-0.227
same,glycan array binding signal (z-score),[44],-0.363
same,glycan array binding signal (z-score),[45],-0.224
